Experimental data: PubChem BioAssay AID1345083 (National Center for Advancing Translational Sciences (NCATS), 2018)
Screen size: about 94,000 compounds; about 6,200 (6.6%) were called active. This list was built around the results that the source calls inconclusive (neither active nor inactive); the mix of calls is not that of the screen. Calls follow the shape of the dose curve; as a rule, active = well fitted inhibition curve with a large enough effect; inconclusive = small, poorly fitted or top-dose-only effect; inactive = flat fitted curve, though single readings scatter. Where the call is inconclusive, the potency comes from a doubtful curve fit.

assay: Cytotoxic Profiling in HEK 293 Cell Line of Diverse Libraries Using Quantitative High-Throughput Screening; settings: HEK 293 viability, ATP luminescence (CellTiter-Glo), 48-72 h; activity change, negative = cytotoxicity: at 115 µM (top of the series) unless noted; series mostly up to 115 µM; also: nearly all actives have a fitted effect of over 60% in size
Method in brief: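 Cytotoxicity was scored by loss of ATP-coupled luminescence (CellTiter-Glo) in HEK 293 cells. Compound treatment ran 48 or 72 hr at 37 degree Celsius, 5% CO2, 95% humidity.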
% is scaled to controls: 0 for no effect and ±100 for the full control effect; potency is read from the fitted curve at half-maximal effect; tags tell the direction and shape of the fitted curve.

Row | SMILES | Potency | activity change, negative = cytotoxicity
1 | O=C(Cc1cccc(Cl)c1)N1CCCC(c2nn(-c3cccc(Cl)c3)c(=O)[nH]2)C1 (stereo not drawn) | inconclusive: 50.1 µM [inhibitor, partial curve, poor fit] | –
2 | O=[S+]([O-])(c1ccccc1)N1CCc2nc(C3CC3)nc(-c3ccc(Cl)cc3)c2CC1 | inconclusive: 39.8 µM [inhibitor, full curve, poor fit] | –
3 | CC1CCN(c2ccc(CNC(=O)C3CCCN(Cc4ccncc4)CCC(=O)NCC3)cc2)CC1 (stereo not drawn) | inconclusive: 50.1 µM [inhibitor, partial curve, poor fit] | –
4 | Cc1noc(C)c1[S+](=O)([O-])NC1CCN(C(=O)c2ccc(-c3cncnc3)cc2)CC1 | – | inactive: -1.43%
5 | CC(=O)Nc1ccc(NC[C@@H]2C=C(C)[C@H](Cc3nnc(C)o3)C[C@H]2C(C)C)cn1 | active: 112 µM | –
6 | CC1=C(C(=O)OC(C)(C)C)C(c2ccccc2F)N2C(CC(=O)N3CCCC3)=CSC2=N1 (stereo not drawn) | inconclusive: 7.94 µM [inhibitor, full curve, poor fit] | –
7 | CN(C)C(=O)CCC(=O)N1CCN(Cc2ccccc2)CC(O)C1 (stereo not drawn) | – | inactive: -5.28%
8 | CCn1ccc2oc(C)c(C(=O)NCc3ccc(F)cc3Cl)c2c1=O | inconclusive: 56.2 µM [inhibitor, partial curve, poor fit] | –
9 | O=C(NCCN1CCCCC1)c1c(-c2cncnc2)cc(=O)n2c1CCCC2 | – | inactive: -5.43%
10 | CN1CC2(CCCN(C(=O)CCc3ccccc3Cl)CC2)OC1=O (stereo not drawn) | – | inactive: -0.515%
11 | Cc1ccc(-c2cc(N3CCCN(C(=O)Cc4ccccc4)CC3)n[nH]2)cc1C | inconclusive: 44.7 µM [inhibitor, partial curve, poor fit] | –
12 | Cc1occc1C(=O)N1CCC(C2CCN(c3ncccn3)CC2)C1 (stereo not drawn) | inconclusive: 79.4 µM [inhibitor, partial curve, poor fit] | –
13 | Cc1ncc2c(c1CNC(=O)c1ccc3cccnc3c1O)CCNC2 | – | inactive: -15.2%
14 | COC(=O)c1ccc2nc(CO[C@H]3CN(Cc4ccccc4C)C[C@H]3F)[nH]c2c1 | inconclusive: 89.1 µM [inhibitor, partial curve, poor fit] | –
15 | COCCNC(=O)[C@@H]1C[C@H](Oc2ccccc2)CN1C(=O)c1cnc(C)cn1 | – | inactive: 2.9%
16 | OC(COc1ccccc1CNCCc1ccccc1)CN1CCSCC1 (stereo not drawn) | inconclusive: 25.1 µM [inhibitor, full curve, poor fit] | –
17 | O=S(=O)(c1ccc(F)cc1F)N1CCCC(Cn2c(C3CC3)nc3cccnc32)C1 (stereo not drawn) | inconclusive: 89.1 µM [inhibitor, single point] | –
18 | O=C(Nc1cccn2nc(C3CCC3)nc12)c1cccc(C(F)(F)F)c1 | inconclusive: 44.7 µM [inhibitor, partial curve, poor fit] | –
